Experimental data taken from US20240199745A1, “ANTI-EGFR ANTIBODY DRUG CONJUGATES” (priority 2016, published 2024).

Key:
[1] = system: mcl-1−/− MEF Vector Control; assay: CellTiter-Glo cell viability, Mcl-1-/- MEF empty vector control, 96 hours; type: cell-based, mouse
Experimental: Retroviral supernatants were produced through transfection of the GP2-293 packaging cell line (Clontech) with the retroviral construct pLVC-IRES-Hygro (Clontech) containing huEGFR sequence or the empty vector utilizing FuGENE 6 transfection reagent (Roche Molecular Biochemicals, Mannheim, Germany). After 48 hours of culture, virus-containing supernatant was harvested and applied to mcl-1^−/− MEFs in 75 cm^2 culture flasks (0.5×10^6 per flask) for a further 48 hours in the presence of polybrene (8 μg/ml; Sigma). Mcl-1^−/− MEFs were washed and selected after 3 days with 250 μg/mL hygromycin B (Invitrogen) in the full complement of media. The expression of huEGFR was confirmed by flow cytometry and compared to the parental cell line or those transfected with the empty vector.
Mcl-1^−/− MEFs expressing huEGFR or the pLVX empty vector (Vct Ctrl) were treated with AB033-targeted Bcl-xL-ADCs, AB033 alone or MSL109-targeted Bcl-xL-ADCs for 96 hours in DMEM containing 10% FBS. For the assay, the cells were plated at 250 cells per well in 384-well tissue culture plates (Corning, Corning, NY) in a total volume of 25 μL of assay media (DMEM and 10% HI FBS). The plated cells were treated with a 4-fold serial dilution of the Antibody Drug Conjugates of interest from either 1 μM or 0.5 μM to either 1 50 μM or 25 μM, respectively. Each concentration was tested in at least three replicates for the Mcl-1^−/− MEF huEGFR cell line and for the Mcl-1^−/− MEF vector cell line. The fraction of viable cells following 96 hours of Antibody Drug Conjugate treatment at 37° C. and 5% CO2 was determined using the CellTiter-Glo Luminescent Cell Viability Assay according to the manufacturer's recommendations (Promega Corp., Madison, WI). The plates were read in a Perkin Elmer Envision using a Luminescence protocol with 0.1 see integration time. The replicate values for each dilution point were averaged and the EC50 values for the Antibody Drug Conjugates were generated by fitting the data with GraphPad Prism 5 (GraphPad Software, Inc.) to a sigmoidal curve model using linear regression, Y=((Bottom−Top)/(1+((x/K)^n)))+Top, where Y is the measured response, x is the compound concentration, n is the Hill Slope and K is the EC50 and Bottom and Top are the lower and higher asymptotes respectively. Visual inspection of curves was used to verify curve fit results. Mcl-1^−/− MEFs were obtained from David C. S. Huang of the Walter and Eliza Hall Institute of Medical Research.

[2] = Size exclusion chromatography (SEC), % aggregate fraction of ADCs; type: physicochemical; conditions: Shodex KW802.5, absorbance at 280 nm
Experimental: Size exclusion chromatography (SEC) was performed using a Shodex KW802.5 column in 0.2M potassium phosphate pH 6.2 with 0.25 mM potassium chloride and 15% isopropyl alcohol at a flow rate of 0.75 ml/min. The peak area absorbance at 280 nm was determined for each of the high molecular weight and monomeric eluents by integration of the area under the curve. The % aggregate fraction of the conjugate sample was determined by dividing the peak area absorbance at 280 nm for the high molecular weight eluent by the sum of the peak area absorbances at 280 nM of the high molecular weight and monomeric eluents multiplied by 100%.
The average DAR values were determined using the above LC-MS method. The % aggregate fraction for the ADCs was also determined using the SEC method described in Example 2.2. The DAR and % aggregation are both reported below in Table 7.

NCI-H1650 xenograft = assay: NCI-H1650 flank xenograft model of NSCLC, tumor growth inhibition and delay; type: in vivo, SCID/bg mice; conditions: Table 10; 10 mg/kg/day, QD × 1/IP

Molecule	EC50 [1] [nM]	% Agg (by SEC) [2] [%]	TGImax (NCI-H1650 xenograft) [%]
AbG-TX (conjugate) heavy: EVQLQESGPGLVKPSQTLSLTCTVSGYSISNDFAWNWIRQLPGKGLEWMGYISYKGNTRYQPSLKSRITISRDTSKNQFFLKLNSVTAADTATYYCVTASRGLPYWGQGTLVTVSS[human IgG1 constant region left out here] light: DIQMTQSPSSMSVSVGDRVTITCHSSQDITYNIGWLQQKPGKSFKGLIYHGANLDDGVPSRFSGSGSGTDYTLTISSLQPEDFATYYCVQYDEFPWTFGGGTKLEIKRTVAAPSVFIFPPSDEQLKSGTASVVCLLNNFYPREAKVQWKVDNALQSGNSQESVTEQDSKDSTYSLSSTLTLSKADYEKHKVYACEVTHQGLSSPVTKSFNRGEC	368	1.6	88
AbG-XW (conjugate) heavy: EVQLQESGPGLVKPSQTLSLTCTVSGYSISNDFAWNWIRQLPGKGLEWMGYISYKGNTRYQPSLKSRITISRDTSKNQFFLKLNSVTAADTATYYCVTASRGLPYWGQGTLVTVSS[human IgG1 constant region left out here] light: DIQMTQSPSSMSVSVGDRVTITCHSSQDITYNIGWLQQKPGKSFKGLIYHGANLDDGVPSRFSGSGSGTDYTLTISSLQPEDFATYYCVQYDEFPWTFGGGTKLEIKRTVAAPSVFIFPPSDEQLKSGTASVVCLLNNFYPREAKVQWKVDNALQSGNSQESVTEQDSKDSTYSLSSTLTLSKADYEKHKVYACEVTHQGLSSPVTKSFNRGEC	246	5.9	76
